# Assay results: the supplement of paper PMC8728848
# The list shows a part of the results.
# Experiments:
# Assay in all cases: glycan array binding signal (z-score within array); higher = stronger binding
# Conditions in all cases: glycan notation: IUPAC condensed, linker removed
# [1] = molecular target: Gal(b1-3)GlcNAc(b1-3)Gal(b1-4)GlcNAc(b1-2)[Gal(b1-3)GlcNAc(b1-3)Gal(b1-4)GlcNAc(b1-6)]Man(a1-6)[Gal(b1-3)GlcNAc(b1-3)Gal(b1-4)GlcNAc(b1-2)Man(a1-3)]Man(b1-4)GlcNAc(b1-4)[Fuc(a1-6)]GlcNAc
# Procedure, shortened: (§1)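 Negative Z-scores can be read as non-binding. The Z-score is calculated within each array and then averaged across arrays of one protein sequence at different concentrations or buffers and across linkers. Arrays, 3228 in all, were curated from the Consortium for Functional Glycomics database and kept only where the protein sequence was available.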
# [2] = molecular target: Gal(b1-3)GlcNAc(b1-3)Gal(b1-4)GlcNAc(b1-3)Gal(b1-4)GlcNAc(b1-2)[Gal(b1-3)GlcNAc(b1-3)Gal(b1-4)GlcNAc(b1-3)Gal(b1-4)GlcNAc(b1-6)]Man(a1-6)[Gal(b1-3)GlcNAc(b1-3)Gal(b1-4)GlcNAc(b1-3)Gal(b1-4)GlcNAc(b1-2)Man(a1-3)]Man(b1-4)GlcNAc(b1-4)[Fuc(a1-6)]GlcNAc
# Procedure, shortened: as §1
# [3] = molecular target: Gal(b1-3)GlcNAc(b1-3)Gal(b1-4)GlcNAc(b1-6)[Gal(b1-3)GlcNAc(b1-3)]Gal(b1-4)Glc
# Procedure, shortened: as §1
# [4] = molecular target: Gal(b1-3)GlcNAc(b1-3)Gal(b1-4)[Fuc(a1-3)]GlcNAc
# Procedure, shortened: as §1
# [5] = molecular target: Gal(b1-3)GlcNAc(b1-3)Gal(b1-4)[Fuc(a1-3)]GlcNAc(b1-6)[Gal(b1-3)GlcNAc(b1-3)]Gal(b1-4)Glc
# Procedure, shortened: as §1
# [6] = molecular target: Gal(b1-3)GlcNAc(b1-3)GalNAc
# Procedure, shortened: as §1
# [7] = molecular target: Gal(b1-3)GlcNAc(b1-6)Gal(b1-4)GlcNAc
# Procedure, shortened: as §1
# [8] = molecular target: Gal(b1-3)GlcNAc(b1-6)GalNAc
# Procedure, shortened: as §1
# [9] = molecular target: Gal(b1-3)GlcNAc(b1-6)[Gal(b1-3)]GalNAc
# Procedure, shortened: as §1
# Gal(b1-3)GlcNAc6S = molecular target: Gal(b1-3)GlcNAc6S
# Procedure, shortened: as §1
# [10] = molecular target: Gal(b1-3)[Fuc(a1-4)]GlcNAc
# Procedure, shortened: as §1
# [11] = molecular target: Gal(b1-3)[Fuc(a1-4)]GlcNAc(b1-2)Man
# Procedure, shortened: as §1
# [12] = molecular target: Gal(b1-3)[Fuc(a1-4)]GlcNAc(b1-2)Man(a1-3)[Gal(b1-3)[Fuc(a1-4)]GlcNAc(b1-2)Man(a1-6)]Man(b1-4)GlcNAc(b1-4)[Fuc(a1-6)]GlcNAc
# Procedure, shortened: as §1
# [13] = molecular target: Gal(b1-3)[Fuc(a1-4)]GlcNAc(b1-3)Gal(b1-3)[Fuc(a1-4)]GlcNAc
# Procedure, shortened: as §1
# [14] = molecular target: Gal(b1-3)[Fuc(a1-4)]GlcNAc(b1-3)Gal(b1-4)[Fuc(a1-3)]GlcNAc
# Procedure, shortened: as §1
# [15] = molecular target: Gal(b1-3)[Fuc(a1-4)]GlcNAc(b1-6)GalNAc
# Procedure, shortened: as §1
# [16] = molecular target: Gal(b1-3)[GlcNAc(b1-6)]GalNAc
# Procedure, shortened: as §1
# [17] = molecular target: Gal(b1-3)[Neu5Ac(a2-6)]GalNAc
# Procedure, shortened: as §1
# [18] = molecular target: Gal(b1-3)[Neu5Ac(a2-6)]GlcNAc(b1-4)Gal(b1-4)Glc
# Procedure, shortened: as §1
# [19] = molecular target: Gal(b1-3)[Neu5Ac(b2-6)]GalNAc
# Procedure, shortened: as §1
# Gal(b1-4)Gal = molecular target: Gal(b1-4)Gal
# Procedure, shortened: as §1
# [20] = molecular target: Gal(b1-4)GalNAc(a1-3)[Fuc(a1-2)]Gal(b1-4)GlcNAc
# Procedure, shortened: as §1
# [21] = molecular target: Gal(b1-4)GalNAc(b1-3)[Fuc(a1-2)]Gal(b1-4)GlcNAc
# Procedure, shortened: as §1
# Gal(b1-4)Glc = molecular target: Gal(b1-4)Glc
# Procedure, shortened: as §1
# Gal(b1-4)Glc6S = molecular target: Gal(b1-4)Glc6S
# Procedure, shortened: as §1
# Gal(b1-4)GlcNAc = molecular target: Gal(b1-4)GlcNAc
# Procedure, shortened: as §1
# [22] = molecular target: Gal(b1-4)GlcNAc(a1-6)Gal(b1-4)GlcNAc
# Procedure, shortened: as §1
# Gal(b1-4)GlcNAc(b1-2)Man = molecular target: Gal(b1-4)GlcNAc(b1-2)Man
# Procedure, shortened: as §1
# [23] = molecular target: Gal(b1-4)GlcNAc(b1-2)Man(a1-3)Man(b1-4)GlcNAc(b1-4)GlcNAc
# Procedure, shortened: as §1
# [24] = molecular target: Gal(b1-4)GlcNAc(b1-2)Man(a1-3)[Gal(b1-4)GlcNAc(b1-2)Man(a1-6)]Man(b1-4)GlcNAc(b1-4)GlcNAc
# Procedure, shortened: as §1
# [25] = molecular target: Gal(b1-4)GlcNAc(b1-2)Man(a1-3)[Gal(b1-4)GlcNAc(b1-2)Man(a1-6)]Man(b1-4)GlcNAc(b1-4)[Fuc(a1-6)]GlcNAc
# Procedure, shortened: as §1
# [26] = molecular target: Gal(b1-4)GlcNAc(b1-2)Man(a1-3)[Gal(b1-4)GlcNAc(b1-2)Man(a1-6)][Gal(b1-4)GlcNAc(b1-4)]Man(b1-4)GlcNAc(b1-4)[Fuc(a1-6)]GlcNAc
# Procedure, shortened: as §1
# [27] = molecular target: Gal(b1-4)GlcNAc(b1-2)Man(a1-3)[Gal(b1-4)GlcNAc(b1-2)Man(a1-6)][GlcNAc(b1-4)]Man(b1-4)GlcNAc(b1-4)[Fuc(a1-6)]GlcNAc
# Procedure, shortened: as §1
# [28] = molecular target: Gal(b1-4)GlcNAc(b1-2)Man(a1-3)[GlcNAc(b1-2)Man(a1-6)]Man(b1-4)GlcNAc(b1-4)GlcNAc
# Procedure, shortened: as §1
# [29] = molecular target: Gal(b1-4)GlcNAc(b1-2)Man(a1-3)[GlcNAc(b1-4)][Gal(b1-4)GlcNAc(b1-2)Man(a1-6)]Man(b1-4)GlcNAc(b1-4)GlcNAc
# Procedure, shortened: as §1
# [30] = molecular target: Gal(b1-4)GlcNAc(b1-2)Man(a1-3)[Man(a1-6)]Man(b1-4)GlcNAc(b1-4)GlcNAc
# Procedure, shortened: as §1
# [31] = molecular target: Gal(b1-4)GlcNAc(b1-2)Man(a1-6)Man(b1-4)GlcNAc(b1-4)GlcNAc
# Procedure, shortened: as §1
# [32] = molecular target: Gal(b1-4)GlcNAc(b1-2)Man(a1-6)[GlcNAc(b1-2)Man(a1-3)]Man(b1-4)GlcNAc(b1-4)GlcNAc
# Procedure, shortened: as §1
binder,measurement,setting,value
Clone730PsrP (Streptococcus pneumoniae) (protein) MDHHHHHHHHHHASENLYFQGAMVVGSQTAAATEATAKKVEEDRKKPASDYVASVTNVNLQSYAKRRKRSVDSIEQLLASIKNAAVFSGNTIVNGAPAINASLNIAKSETKVYTGEGVDSVYRVPIYYKLKVTNDGSKLTFTYTVTYVNPKTNDLGNISSMRPGYSIYNSGTSTQTMLTLGSDLGKPSGVKNYITDKNGRQVLSYNTSTMTTQGSGYTWGNGAQMNGFFAKKGYGLTSSWTVPITGTDTSFTFTPYAARTDRIGINYFNGGGKVVESSTT,glycan array binding signal (z-score),[1],-0.352
same,glycan array binding signal (z-score),[2],-0.109
same,glycan array binding signal (z-score),[3],-0.26
same,glycan array binding signal (z-score),[4],-0.476
same,glycan array binding signal (z-score),[5],-0.518
same,glycan array binding signal (z-score),[6],-0.617
same,glycan array binding signal (z-score),[7],-0.039
same,glycan array binding signal (z-score),[8],-0.605
same,glycan array binding signal (z-score),[9],-0.501
same,glycan array binding signal (z-score),Gal(b1-3)GlcNAc6S,-0.543
same,glycan array binding signal (z-score),[10],0.134
same,glycan array binding signal (z-score),[11],-0.57
same,glycan array binding signal (z-score),[12],0.133
same,glycan array binding signal (z-score),[13],-0.6
same,glycan array binding signal (z-score),[14],-0.554
same,glycan array binding signal (z-score),[15],-0.533
same,glycan array binding signal (z-score),[16],-0.223
same,glycan array binding signal (z-score),[17],-0.508
same,glycan array binding signal (z-score),[18],-0.371
same,glycan array binding signal (z-score),[19],-0.592
same,glycan array binding signal (z-score),Gal(b1-4)Gal,-0.482
same,glycan array binding signal (z-score),[20],-0.441
same,glycan array binding signal (z-score),[21],-0.523
same,glycan array binding signal (z-score),Gal(b1-4)Glc,-0.015
same,glycan array binding signal (z-score),Gal(b1-4)Glc6S,-0.098
same,glycan array binding signal (z-score),Gal(b1-4)GlcNAc,-0.123
same,glycan array binding signal (z-score),[22],0.369
same,glycan array binding signal (z-score),Gal(b1-4)GlcNAc(b1-2)Man,1.47
same,glycan array binding signal (z-score),[23],-0.353
same,glycan array binding signal (z-score),[24],-0.345
same,glycan array binding signal (z-score),[25],-0.152
same,glycan array binding signal (z-score),[26],-0.252
same,glycan array binding signal (z-score),[27],-0.249
same,glycan array binding signal (z-score),[28],-0.379
same,glycan array binding signal (z-score),[29],-0.351
same,glycan array binding signal (z-score),[30],-0.069
same,glycan array binding signal (z-score),[31],-0.294
same,glycan array binding signal (z-score),[32],-0.191
